# Source: PubChem BioAssay AID686979 (National Center for Advancing Translational Sciences (NCATS), 2013)
# About 50,000 (12%) of roughly 420,000 compounds were called active. Inconclusive means that the source gave no clear call. Such entries were picked first, then a sample of the others. Calls come from the whole dose curve; as a rule, active = well fitted inhibition curve with a large enough effect; inconclusive = small, poorly fitted or top-dose-only effect; inactive = flat fitted curve, though single readings scatter. No potency is given beside an inconclusive call; the fits are too rough.
# Test: qHTS for Inhibitors of human tyrosyl-DNA phosphodiesterase 1 (TDP1): qHTS in cells in presence of CPT; note: nearly all actives have a fitted effect of over 55% in size
# Conditions: chicken DT40 Tdp1-/-;hTDP1 cells + 20 nM CPT, ATP luminescence, 48 h; series mostly up to 46.2 µM
# Summary of the method: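 Chicken DT40 Tdp1-/- cells stably complemented with human TDP1 were seeded at 400 cells/well in medium containing 20 nM camptothecin, exposed to pin-transferred compounds, and grown at 37 °C for at least 48 hr. Viability was read as ATP luminescence.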
# Potency is the fitted concentration of half-maximal effect; tags give direction and shape of the fitted curve.
row,SMILES,Potency
1,CCN(CC)c1ccc(/C=N/N2C(C)CCCC2C)c(O)c1 (stereo not drawn),"inconclusive [inhibitor, single point]"
2,CC(C)c1ccccc1NC(=O)C(Cc1c[nH]c2ccccc12)NC(=O)OC(C)(C)C (stereo not drawn),active: 18.4 µM
3,Cc1cccc(OCCSc2cc(C)nc(N)n2)c1,"inconclusive [inhibitor, partial curve]"
4,COc1ccc(CC(=O)Nc2nc(OCC(F)(F)F)cnc2-c2ccc(Cl)cc2Cl)cc1,"inconclusive [inhibitor, single point]"
5,O=[N+]([O-])c1ccc(NN=Cc2cccc([N+](=O)[O-])c2)cc1,"inconclusive [inhibitor, single point]"
6,Cc1c(CN(C)C)c2c(n1C)C(=O)c1ccc(Br)cc1-2,"inconclusive [inhibitor, single point]"
7,Cc1ccc(S(=O)(=O)c2nc(-c3cccs3)oc2SCc2ccc(F)cc2)cc1,active: 16.4 µM
8,CCOCCn1c(CN2CCN(C(=O)c3ccco3)CC2)nc2c1c(=O)n(C)c(=O)n2C,inactive
9,O=C(Nc1ccc(Cl)cc1)C1CCCN(c2cnccn2)C1 (stereo not drawn),"inconclusive [inhibitor, single point]"
10,C/C(=N\NC(=O)c1nn(C)c(C)c1Br)c1cccc(NC(=O)c2ccoc2C)c1,"inconclusive [inhibitor, single point]"
11,O=C(NCc1ccccn1)c1ccc2c(=O)n3nc(Nc4ccccc4)sc3nc2c1,"inconclusive [inhibitor, partial curve]"
12,CCOC(=O)[C@]12CCC=C1N(Cc1cccc3ccccc13)C(=O)[C@H](CC(=O)NCc1cccc3ccccc13)C2,"inconclusive [inhibitor, single point]"
13,CCN(CC)CC(=O)Nc1ccc([N+](=O)[O-])cc1,inactive
14,C=C(CC[C@]12OC(C(=O)O)C(O)(C(=O)O)C(C(=O)O)(O1)C(OC(=O)/C=C/[C@@H](C)C[C@@H](C)CC)C2O)[C@@H](OC(C)=O)[C@H](C)Cc1ccccc1 (stereo partly drawn),active: 8.91 µM
15,CC(C)c1cc(C(=O)NCc2ccc(F)cc2)c(N)s1,"inconclusive [inhibitor, single point]"
16,O=c1[nH]nc(N2CCOCC2)c(=O)[nH]1,"inconclusive [inhibitor, single point]"
17,Cc1cc(NC(=O)c2cccnc2)ccc1NC(=O)c1cc2ccccc2o1,active: 13 µM
18,COC(=O)c1ccccc1NC(=O)CS(=O)(=O)Cc1nc(-c2ccc(C)cc2)oc1C,"inconclusive [inhibitor, partial curve, poor fit]"
19,COc1ccc(S(=O)(=O)N(C)CC(=O)NC2CC2)cc1,inactive
20,CCOC(=O)C1=C(CN(CC)Cc2ccccc2)NC(=O)NC1c1ccc(OC)cc1 (stereo not drawn),"inconclusive [inhibitor, single point]"
21,O=C1c2cccc3cccc(c23)C(=O)N1CCCc1n[nH]c(=S)n1-c1ccccc1,inactive
22,CCC(Sc1nnc(C)c(=O)[nH]1)C(=O)Nc1cccc2ccccc12 (stereo not drawn),inactive
23,Cc1cccc2c(Nc3ccc4c(c3)OCO4)nc(CN3CCC(N4CCCCC4)CC3)nc12,active: 14.6 µM

row,SMILES,Potency
1,CCC(=O)N1c2ccc(S(=O)(=O)NC3CCCCC3)cc2CC1C (stereo not drawn),active: 20.6 µM
2,COc1ccc2c(c1)c1c(c(=O)n(-c3ccc(F)c(Cl)c3)c(=O)n1Cc1ccccc1F)n2C,"inconclusive [inhibitor, single point]"
3,CCCCNC(=O)c1ccc2c(c1)NC(=O)C(C(C)C)N2 (stereo not drawn),inactive
4,COc1ccccc1NC(=O)C(C)N1CCN(C/C=C/c2ccccc2)CC1 (stereo not drawn),"inconclusive [inhibitor, single point]"
5,CS(=O)(=O)N1CCN(c2ccc([N+](=O)[O-])cc2C(F)(F)F)CC1,"inconclusive [inhibitor, partial curve]"
6,CCS(=O)(=O)c1ccc2oc(Nc3cc(C)cc(C)c3)nc2c1,"inconclusive [inhibitor, single point]"
7,Nc1nc2c(ncn2C2OC(COC(=O)c3ccccc3)C(OC(=O)c3ccccc3)C2OC(=O)c2ccccc2)c(=O)[nH]1 (stereo not drawn),"inconclusive [inhibitor, single point]"
8,COC(=O)c1cccc(NC(=O)CSc2nnc(COc3ccc(C#N)cc3)n2-c2ccccc2)c1,inactive
9,c1cncc(-c2nnc(SCc3nc4ccccc4[nH]3)o2)c1,inactive
10,Cc1c(C(=O)N2CCC(C)CC2)oc2ccc(S(=O)(=O)N3CCC4(CC3)OCCO4)cc12,"inconclusive [inhibitor, single point]"
11,COc1ccc(N(Cc2cc(=O)[nH]c3ccccc23)C(=O)CCl)cc1,active: 2.06 µM
12,Cn1c(NCCN2CCCC2)nc2cc(-c3ccccc3)sc2c1=O,"inconclusive [inhibitor, single point]"
13,CC(=O)COc1ccc2c(c1C)O/C(=C\c1ccco1)C2=O,"inconclusive [inhibitor, single point]"
14,CC(C)C(NS(=O)(=O)c1cccs1)C(=O)Nc1nc(C(C)(C)C)cs1 (stereo not drawn),active: 16.4 µM
15,COc1ccc(OC)c(CCNC(=O)c2nn(C)c3c2CS(=O)(=O)c2ccccc2-3)c1,"inconclusive [inhibitor, single point]"
16,COc1ccccc1NC(=O)C(=O)c1cc(C)n(-c2cc(C)cc(C)c2)c1C,"inconclusive [inhibitor, single point]"
17,Cc1cc(-c2n[nH]c(=S)n2/N=C/c2ccc(Cl)c([N+](=O)[O-])c2)n[nH]1,"inconclusive [inhibitor, single point]"
18,O=C(Oc1ccc(-c2csnn2)cc1)c1cccs1,inactive
19,O=C(C[C@H]1C(=O)N(Cc2cccnc2)C[C@@H]1Cc1ccccc1)Nc1ccc(Br)cc1,"inconclusive [inhibitor, single point]"
20,Cc1ccc(S(=O)(=O)N2CCCCC2C(=O)N2CCN(c3ccccc3F)CC2)cc1 (stereo not drawn),"inconclusive [inhibitor, single point]"
21,Cn1c(=O)c2c(nc(CN3CCN(CCO)CC3)n2Cc2ccccc2Cl)n(C)c1=O,inactive
22,O=C(NCCS(=O)(=O)N1CCN(c2cccc(Cl)c2)CC1)c1ccc2c(c1)OCO2,"inconclusive [inhibitor, single point]"
23,COc1ccc(CN(C)S(=O)(=O)c2nnc(NC(=O)c3ccccc3OC)s2)cc1OC,"inconclusive [inhibitor, single point]"

row,SMILES,Potency
1,O=C1CN(C(=O)c2cccc(Br)c2)C(c2ccccc2)c2cc(Cl)ccc2N1 (stereo not drawn),active: 5.17 µM
2,COc1cccc(C(=O)Nc2nc(-c3nnn(-c4cc(C)ccc4C)c3C)ns2)c1,"inconclusive [inhibitor, single point]"
3,CCOc1cccc(-c2nc3ccccc3c(=O)o2)c1,"inconclusive [inhibitor, partial curve]"
4,Cc1[nH]c(-c2ccccn2)nc(=S)c1Cl,active: 10.3 µM
5,N#Cc1c(-n2ncnc2-c2cccc(Cl)c2)sc2c1CCCCC2,inactive
6,CC1(C(=O)NCCc2ccccc2)Cc2c(-c3ccc4c(c3)OCO4)ccnc2O1 (stereo not drawn),"inconclusive [inhibitor, partial curve, poor fit]"
7,CCCCN1C(Nc2ccccc2)=NC[C@@H]1CC(C)C,"inconclusive [inhibitor, single point]"
8,CCOc1ccc(OCCCC(=O)Nc2cc(Cl)ccc2-n2cncn2)cc1,inactive
9,CN(C)C(=O)c1cccc(-c2ccc3nncn3c2)c1,inactive
10,CC(C)(C)c1ccc(C(=O)NC2=NC(c3cccc(F)c3)CC(=O)N2)cc1 (stereo not drawn),"inconclusive [inhibitor, single point]"
11,Cc1oc2ccc(OC(=O)c3cccs3)cc2c1C(=O)OC(C)C,"inconclusive [inhibitor, single point]"
12,CCn1c(NCc2ccccc2NS(=O)(=O)c2ccc(C)cc2)nc2ccccc21,active: 16.4 µM
13,COC(=O)C1=C(C)NC(C)=C(C(=O)OC(C)(C)CN(C)CCC(c2ccccc2)c2ccccc2)C1c1cccc([N+](=O)[O-])c1 (stereo not drawn),active: 8.41 µM
14,COc1ccc(/C(=N/OC(C)=O)c2nccc3cc(OC)c(OC)cc23)cc1OC,inactive
15,O=C1CC(c2ccccc2)Cc2[nH]c(=O)c(-c3nc(-c4ccc(Cl)c(Cl)c4)cs3)cc21 (stereo not drawn),active: 3.26 µM
16,O=C(c1ccccc1)N1N=C(c2ccccc2O)CC1c1ccc(Br)cc1 (stereo not drawn),"inconclusive [inhibitor, single point]"
17,Cc1ccc(NC(=O)N2CCN(C(=O)c3nsc4ccccc34)CC2)cc1C,"inconclusive [inhibitor, single point]"
18,O=C(C[N+]1(CC#Cc2ccccc2)CCOCC1)c1ccccc1,"inconclusive [inhibitor, single point]"
19,Cc1cccc(CN2CCN(C3CN(Cc4cn(Cc5ccc(F)cc5)nn4)S(=O)(=O)C3)CC2)c1 (stereo not drawn),"inconclusive [inhibitor, single point]"
20,COc1ccc(C(C(=O)NCC2CCCO2)N(C(=O)CNC(=O)c2cccs2)c2ccc(C(C)=O)cc2)cc1OC (stereo not drawn),inactive
21,O=C(CNS(=O)(=O)c1c(Cl)cccc1Cl)OCc1csc(-c2ccccc2)n1,inactive
22,O=C1NC(=O)/C(=C\c2ccc(Br)o2)S1,inactive
